# Some of the results follow.
# B1: OGAA (protein)
# chain: MVQKESQATLEERESELSSNPAASAGASLEPPAAPAPGEDNPAGAGGAAVAGAAGGARRFLCGVVEGFYGRPWVMEQRKELFRRLQKWELNTYLYAPKDDYKHRMFWREMYSVEEAEQLMTLISAAREYEIEFIYAISPGLDITFSNPKEVSTLKRKLDQVSQFGCRSFALLFADIDHNMCAADKEVFSSFAHAQVSITNEIYQYLGEPETFLFCPTEYCGTFCYPNVSQSPYLRTVGEKLLPGIEVLWTGPKVVSKEIPVESIEEVSKIIKRAPVIWDNIHANDYDQKRLFLGPYKGRSTELIPRLKGVLTNPNCEFEANYVAIHTLATWYKSNMNGVRKDVVMTDSEDSTVSIQIKLENEGSDEDIETDVLYSPQMALKLALTEWLQEFGVPHQY
# Assays:
# Experiment in all cases: glycan array binding signal (z-score within array); higher = stronger binding
# Conditions in all cases: glycan notation: IUPAC condensed, linker removed
# [1] = molecular target: Gal(b1-4)GlcNAc(b1-3)Gal(b1-4)GlcNAc(b1-6)[Gal(b1-3)]GalNAc
# Method in brief: (§1)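 The binding signal is a Z-score computed within each array. Data were drawn from 3228 arrays in the Consortium for Functional Glycomics database, restricted to those with a known protein sequence. Scores were averaged over arrays of the same protein sequence at different concentrations or buffers, and over linkers, and negative values can be taken as non-binding.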
# [2] = molecular target: Gal(b1-4)GlcNAc(b1-3)Gal(b1-4)[Fuc(a1-3)]GlcNAc(b1-3)Gal(b1-4)[Fuc(a1-3)]GlcNAc
# Method in brief: as §1
# [3] = molecular target: Gal(b1-4)GlcNAc(b1-3)GalNAc
# Method in brief: as §1
# [4] = molecular target: Gal(b1-4)GlcNAc(b1-3)[Fuc(a1-3)GlcNAc(b1-6)]Gal(b1-4)Glc
# Method in brief: as §1
# [5] = molecular target: Gal(b1-4)GlcNAc(b1-3)[Gal(b1-4)GlcNAc(b1-6)]Gal(b1-4)GlcNAc
# Method in brief: as §1
# [6] = molecular target: Gal(b1-4)GlcNAc(b1-3)[GlcNAc(b1-6)]Gal(b1-4)GlcNAc
# Method in brief: as §1
# [7] = molecular target: Gal(b1-4)GlcNAc(b1-6)Gal(b1-4)GlcNAc
# Method in brief: as §1
# [8] = molecular target: Gal(b1-4)GlcNAc(b1-6)GalNAc
# Method in brief: as §1
# [9] = molecular target: Gal(b1-4)GlcNAc(b1-6)[Gal(b1-3)]GalNAc
# Method in brief: as §1
# [10] = molecular target: Gal(b1-4)GlcNAc(b1-6)[Gal(b1-4)GlcNAc(b1-3)]GalNAc
# Method in brief: as §1
# Gal(b1-4)GlcNAc6P = molecular target: Gal(b1-4)GlcNAc6P
# Method in brief: as §1
# Gal(b1-6)Gal = molecular target: Gal(b1-6)Gal
# Method in brief: as §1
# Gal3S(b1-3)GalNAc = molecular target: Gal3S(b1-3)GalNAc
# Method in brief: as §1
# Gal3S(b1-3)GlcNAc = molecular target: Gal3S(b1-3)GlcNAc
# Method in brief: as §1
# [11] = molecular target: Gal3S(b1-3)[Fuc(a1-4)]GlcNAc
# Method in brief: as §1
# Gal3S(b1-4)Glc = molecular target: Gal3S(b1-4)Glc
# Method in brief: as §1
# Gal3S(b1-4)Glc6S = molecular target: Gal3S(b1-4)Glc6S
# Method in brief: as §1
# Gal3S(b1-4)GlcNAc = molecular target: Gal3S(b1-4)GlcNAc
# Method in brief: as §1
# [12] = molecular target: Gal3S(b1-4)[Fuc(a1-3)]Glc6S
# Method in brief: as §1
# [13] = molecular target: Gal3S(b1-4)[Fuc(a1-3)]GlcNAc
# Method in brief: as §1
# [14] = molecular target: Gal3S(b1-4)[Fuc(a1-3)]GlcNAc6S
# Method in brief: as §1
# Gal3S4S(b1-4)GlcNAc = molecular target: Gal3S4S(b1-4)GlcNAc
# Method in brief: as §1
# Gal3S6S(b1-4)GlcNAc = molecular target: Gal3S6S(b1-4)GlcNAc
# Method in brief: as §1
# Gal3S6S(b1-4)GlcNAc6S = molecular target: Gal3S6S(b1-4)GlcNAc6S
# Method in brief: as §1
# Gal4S(b1-4)GlcNAc = molecular target: Gal4S(b1-4)GlcNAc
# Method in brief: as §1
# Gal4S6S(b1-4)GlcNAc = molecular target: Gal4S6S(b1-4)GlcNAc
# Method in brief: as §1
# Gal6P(b1-4)GlcNAc = molecular target: Gal6P(b1-4)GlcNAc
# Method in brief: as §1
# Gal6S(b1-3)GlcNAc = molecular target: Gal6S(b1-3)GlcNAc
# Method in brief: as §1
# Gal6S(b1-3)GlcNAc6S = molecular target: Gal6S(b1-3)GlcNAc6S
# Method in brief: as §1
# Gal6S(b1-4)Glc = molecular target: Gal6S(b1-4)Glc
# Method in brief: as §1
# Gal6S(b1-4)Glc6S = molecular target: Gal6S(b1-4)Glc6S
# Method in brief: as §1
# Gal6S(b1-4)GlcNAc = molecular target: Gal6S(b1-4)GlcNAc
# Method in brief: as §1
# Gal6S(b1-4)GlcNAc6S = molecular target: Gal6S(b1-4)GlcNAc6S
# Method in brief: as §1
# GalNAc(a1-3)Gal = molecular target: GalNAc(a1-3)Gal
# Method in brief: as §1
# GalNAc(a1-3)GalNAc = molecular target: GalNAc(a1-3)GalNAc
# Method in brief: as §1
# [15] = molecular target: GalNAc(a1-3)GalNAc(b1-3)Gal(a1-4)Gal(b1-4)Glc
# Method in brief: as §1
# [16] = molecular target: GalNAc(a1-3)GalNAc(b1-3)Gal(a1-4)Gal(b1-4)GlcNAc
# Method in brief: as §1
binder,measurement,setting,value
B1,glycan array binding signal (z-score),[1],-0.055
same,glycan array binding signal (z-score),[2],-0.086
same,glycan array binding signal (z-score),[3],-0.07
same,glycan array binding signal (z-score),[4],-0.092
same,glycan array binding signal (z-score),[5],-0.106
same,glycan array binding signal (z-score),[6],-0.128
same,glycan array binding signal (z-score),[7],-0.136
same,glycan array binding signal (z-score),[8],-0.007
same,glycan array binding signal (z-score),[9],-0.067
same,glycan array binding signal (z-score),[10],0.016
same,glycan array binding signal (z-score),Gal(b1-4)GlcNAc6P,-0.069
same,glycan array binding signal (z-score),Gal(b1-6)Gal,-0.105
same,glycan array binding signal (z-score),Gal3S(b1-3)GalNAc,-0.021
same,glycan array binding signal (z-score),Gal3S(b1-3)GlcNAc,0.007
same,glycan array binding signal (z-score),[11],0.042
same,glycan array binding signal (z-score),Gal3S(b1-4)Glc,-0.067
same,glycan array binding signal (z-score),Gal3S(b1-4)Glc6S,-0.088
same,glycan array binding signal (z-score),Gal3S(b1-4)GlcNAc,-0.094
same,glycan array binding signal (z-score),[12],-0.026
same,glycan array binding signal (z-score),[13],-0.033
same,glycan array binding signal (z-score),[14],-0.016
same,glycan array binding signal (z-score),Gal3S4S(b1-4)GlcNAc,-0.054
same,glycan array binding signal (z-score),Gal3S6S(b1-4)GlcNAc,-0.025
same,glycan array binding signal (z-score),Gal3S6S(b1-4)GlcNAc6S,-0.045
same,glycan array binding signal (z-score),Gal4S(b1-4)GlcNAc,-0.043
same,glycan array binding signal (z-score),Gal4S6S(b1-4)GlcNAc,-0.054
same,glycan array binding signal (z-score),Gal6P(b1-4)GlcNAc,-0.072
same,glycan array binding signal (z-score),Gal6S(b1-3)GlcNAc,-0.043
same,glycan array binding signal (z-score),Gal6S(b1-3)GlcNAc6S,-0.051
same,glycan array binding signal (z-score),Gal6S(b1-4)Glc,0.023
same,glycan array binding signal (z-score),Gal6S(b1-4)Glc6S,-0.034
same,glycan array binding signal (z-score),Gal6S(b1-4)GlcNAc,0.096
same,glycan array binding signal (z-score),Gal6S(b1-4)GlcNAc6S,-0.024
same,glycan array binding signal (z-score),GalNAc(a1-3)Gal,-0.087
same,glycan array binding signal (z-score),GalNAc(a1-3)GalNAc,-0.119
same,glycan array binding signal (z-score),[15],-0.089
same,glycan array binding signal (z-score),[16],-0.071

# Reference: the supplement of paper PMC8728848
